According to the supplement of paper PMC6089552:
The campaign covered roughly 3,200 compounds. About 300 (9.4%) showed activity. The entries are a selection whose mix differs from that of the whole data set.

Tested on: A673/TR/shEF
Assay: cell viability (LOESS-normalised, relative to median of negative controls) (log2 ratio); higher = more viable cells (less compound effect), active = hit call of the paper (over 3 MAD below the median)
Conditions: treatment time: 72 h
How it was run: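 A673/TR/shEF Ewing sarcoma cells were plated at 1,500 per well in 384-well plates and cultured with or without doxycycline, added 24 h before compounds, to induce EWS-FLI1 shRNA knockdown. Library compounds at two or more concentrations, alongside DMSO controls, were applied for three days. Cell viability was measured by CellTiter-Glo luminescence on an Envision reader. Readings were LOESS-corrected per plate, divided by the median of negative controls and log2-transformed, and hits were wells lying at least three median absolute deviations from the median of all screened wells.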

[1] = 0.25 µM, library screen: screen2, EWS-FLI1 expression: high (no doxycycline)
[2] = 0.25 µM, library screen: screen2, EWS-FLI1 expression: low (doxycycline-induced shRNA knockdown)
[3] = 2.5 µM, library screen: screen2, EWS-FLI1 expression: high (no doxycycline)
[4] = 2.5 µM, library screen: screen2, EWS-FLI1 expression: low (doxycycline-induced shRNA knockdown)
[5] = 0.25 µM, library screen: screen1, EWS-FLI1 expression: high (no doxycycline)
[6] = 0.25 µM, library screen: screen1, EWS-FLI1 expression: low (doxycycline-induced shRNA knockdown)
[7] = 2.5 µM, library screen: screen1, EWS-FLI1 expression: high (no doxycycline)
[8] = 2.5 µM, library screen: screen1, EWS-FLI1 expression: low (doxycycline-induced shRNA knockdown)
[9] = 0.103 µM, library screen: screen3, EWS-FLI1 expression: high (no doxycycline)
[10] = 0.103 µM, library screen: screen3, EWS-FLI1 expression: low (doxycycline-induced shRNA knockdown)
[11] = 0.308 µM, library screen: screen3, EWS-FLI1 expression: high (no doxycycline)
[12] = 0.308 µM, library screen: screen3, EWS-FLI1 expression: low (doxycycline-induced shRNA knockdown)
[13] = 0.926 µM, library screen: screen3, EWS-FLI1 expression: high (no doxycycline)
[14] = 0.926 µM, library screen: screen3, EWS-FLI1 expression: low (doxycycline-induced shRNA knockdown)
[15] = 2.8 µM, library screen: screen3, EWS-FLI1 expression: high (no doxycycline)
[16] = 2.8 µM, library screen: screen3, EWS-FLI1 expression: low (doxycycline-induced shRNA knockdown)
[17] = 8.3 µM, library screen: screen3, EWS-FLI1 expression: high (no doxycycline)
[18] = 8.3 µM, library screen: screen3, EWS-FLI1 expression: low (doxycycline-induced shRNA knockdown)
[19] = 25 µM, library screen: screen3, EWS-FLI1 expression: high (no doxycycline)
[20] = 25 µM, library screen: screen3, EWS-FLI1 expression: low (doxycycline-induced shRNA knockdown)
[21] = 0.025 µM, library screen: screen2, EWS-FLI1 expression: high (no doxycycline)
[22] = 0.025 µM, library screen: screen2, EWS-FLI1 expression: low (doxycycline-induced shRNA knockdown)
[23] = 25 µM, library screen: screen2, EWS-FLI1 expression: high (no doxycycline)
[24] = 25 µM, library screen: screen2, EWS-FLI1 expression: low (doxycycline-induced shRNA knockdown)

Measured: cell viability (log2)

NCCCCCCCCCCN
inactive: [1] 0.103 | [2] 0.1 | [3] 0.0867 | [4] 0.0848

CC(CCC(=O)O)C1CCC2C3CCC4CC(O)CCC4(C)C3CC(O)C12C (centres undefined)
inactive: [5] 0.105 | [6] 0.0658 | [7] 0.0998 | [8] -0.158

CC1(C)OC(=O)NC1=O
inactive: [5] 0.219 | [6] 0.229 | [7] 0.216 | [8] 0.255

Cn1nnnc1SCC1=C(C(=O)O)N2C(=O)[C@@H](NC(=O)[C@H](O)c3ccccc3)[C@H]2SC1
inactive: [5] 0.0941 | [6] 0.078 | [7] 0.134 | [8] 0.0231

CCC[C@H](N[C@@H](C)C(=O)N1[C@H](C(=O)O)C[C@@H]2CCCC[C@@H]21)C(=O)OCC
inactive: [9] 0.0551 | [10] 0.0368 | [11] -0.0226 | [12] 0.0389 | [13] -0.00229 | [14] 0.0366 | [15] 0.0283 | [16] -0.00742 | [17] 0.00239 | [18] 0.0184 | [19] -0.0397 | [20] -0.0223

COc1ccc(NS(=O)(=O)c2ccc(N)cc2)nn1
inactive: [5] 0.0941 | [6] -0.0774 | [7] 0.18 | [8] 0.126

CCC1(O)CC2CN(CCc3c([nH]c4ccccc34)[C@@](C(=O)OC)(c3cc4c(cc3OC)N(C)C3[C@]45CCN4CC=C[C@@](CC)([C@@H](OC(C)=O)[C@]3(O)C(=O)OC)[C@H]45)C2)C1 (some centres undefined)
active: [1] -3.54 | [2] -0.483 | [3] -3.67 | [4] -0.537

CC(=O)Oc1cccc2c1C(=O)c1c(OC(C)=O)cc(C(=O)O)cc1C2=O
inactive: [5] 0.0277 | [6] 0.0297 | [7] 0.151 | [8] 0.0875

N/C(=N\S(=O)(=O)Cc1ccccc1)Nc1nc2ccccc2o1
inactive: [5] 0.0883 | [6] 0.00923 | [7] 0.149 | [8] 0.031

O=C(Nc1ccccn1)c1cc(-c2ccccc2)nc2ccccc12
inactive: [5] 0.083 | [6] -0.00975 | [7] 0.0888 | [8] -0.0311

COC(=O)C1=CO[C@@H](O[C@@H]2O[C@H](CO)[C@@H](O)[C@H](O)[C@H]2O)[C@@H]2[C@@H](C)[C@@H](O)C[C@H]12
inactive: [5] 0.0575 | [6] -0.00514 | [7] 0.124 | [8] 0.114

O=c1oc(Cl)c(Cl)c2ccccc12
inactive: [1] 0.184 | [2] 0.123 | [3] 0.147 | [4] 0.165

CC(=O)N[C@@H](CCC(=O)O)C(=O)O
inactive: [5] 0.0426 | [6] 0.0495 | [7] 0.162 | [8] 0.0791

CCCC(=O)Nc1ncnc2c1ncn2[C@@H]1O[C@@H]2COP(=O)(O)O[C@H]2[C@H]1OC(=O)CCC
inactive: [5] 0.0521 | [6] 0.034 | [7] 0.0682 | [8] 0.0438

CN1CCCC1c1cccnc1 (centres undefined)
inactive: [5] 0.113 | [6] 0.067 | [7] 0.0646 | [8] 0.132

CN1CCCC(n2nc(Cc3ccc(Cl)cc3)c3ccccc3c2=O)CC1 (centres undefined)
inactive: [9] 0.00451 | [10] 0.0233 | [11] 0.0154 | [12] 0.0686 | [13] 0.0285 | [14] 0.0485 | [15] 0.0385 | [16] 0.0809 | [17] 0.0197 | [18] 0.0247 | [19] -0.00429 | [20] -0.0202

CCN(CC)CCOc1ccc(/C(=C(\Cl)c2ccccc2)c2ccccc2)cc1
inactive: [9] 0.0849 | [10] 0.106 | [5] 0.0772 | [6] 0.0741 | [11] 0.0999 | [12] 0.0666 | [13] 0.0054 | [14] 0.0776 | [7] 0.197 | [8] 0.104 | [15] 0.063 | [16] 0.0123 | [17] 0.00146 | [18] 0.0364 | [19] -0.048 | [20] 0.0654

COc1c(C2COc3cc4c(cc3C2=O)CC(O)C(C)(C)O4)ccc2c1CCC(C)(C)O2 (centres undefined)
inactive: [5] 0.0719 | [6] 0.0278 | [7] 0.0883 | [8] 0.0229

NC(=O)N/N=C/c1ccc([N+](=O)[O-])o1
inactive: [21] 0.075 | [22] 0.0664 | [9] 0.141 | [10] 0.0585 | [5] 0.0953 | [6] 0.12 | [1] 0.0618 | [2] -0.052 | [11] 0.134 | [12] 0.117 | [13] 0.0886 | [14] 0.0795 | [7] 0.106 | [8] 0.0319 | [3] 0.0249 | [4] 0.0684 | [15] 0.0952 | [16] 0.129 | [17] 0.0158 | [18] 0.076 | [23] 0.045 | [24] 0.0181 | [19] 0.083 | [20] 0.125

CN(C)C(=N)N=C(N)N
inactive: [9] 0.118 | [10] 0.00549 | [11] 0.0861 | [12] 0.0658 | [13] 0.0857 | [14] 0.0788 | [15] 0.119 | [16] 0.0653 | [17] 0.0621 | [18] 0.0611 | [19] 0.141 | [20] 0.0761

CO[C@@H]1[C@@H](OC(N)=O)[C@@H](O)[C@H](Oc2ccc3c(O)c(NC(=O)c4ccc(O)c(CC=C(C)C)c4)c(=O)oc3c2C)OC1(C)C
inactive: [9] 0.113 | [10] 0.068 | [5] -0.0218 | [6] 0.0415 | [11] 0.0747 | [12] 0.112 | [13] 0.0507 | [14] 0.0892 | [7] 0.0375 | [8] 0.0732 | [15] 0.0897 | [16] 0.00635 | [17] 0.0955 | [18] 0.0615 | [19] 0.0736 | [20] 0.0942

O=C(NCO)c1cccnc1
inactive: [6] 0.147 | [7] 0.255 | [8] 0.103
0.28: [5]

CC(=O)Oc1cccc(O)c1
inactive: [5] 0.0986 | [6] 0.0479 | [7] 0.156 | [8] 0.0119

CCCc1c(OCCCCc2nn[nH]n2)ccc(C(C)=O)c1O
inactive: [1] 0.127 | [2] 0.0514 | [3] 0.136 | [4] 0.105

CCN1CCN(C(=O)N[C@@H](C(=O)N[C@@H]2C(=O)N3[C@@H]2SC(C)(C)[C@@H]3C(=O)O)c2ccccc2)C(=O)C1=O
inactive: [5] 0.0771 | [6] 0.092 | [7] 0.127 | [8] 0.201

O=C(NCCNCC(O)COc1ccc(O)cc1)N1CCOCC1 (centres undefined)
inactive: [1] 0.0856 | [2] 0.053 | [3] 0.142 | [4] 0.0802

N=C(N)c1ccccc1
inactive: [1] 0.23 | [2] 0.0869 | [3] 0.101 | [4] 0.0194

CCN(Cc1ccncc1)C(=O)C(CO)c1ccccc1 (centres undefined)
inactive: [5] 0.0354 | [6] 0.149 | [1] 0.141 | [2] 0.023 | [7] 0.143 | [8] 0.156 | [3] 0.0981 | [4] 0.0285

Nc1nc(SCc2ccc([N+](=O)[O-])cc2)c2ncn([C@@H]3O[C@H](CO)[C@@H](O)[C@H]3O)c2n1
inactive: [1] -0.00724 | [2] 0.0269 | [3] 0.0689 | [4] 0.142

Cc1ncc([N+](=O)[O-])n1CCO
inactive: [21] 0.269 | [22] 0.102 | [5] 0.123 | [6] 0.0483 | [1] 0.132 | [2] 0.0608 | [7] 0.12 | [8] 0.00143 | [3] 0.175 | [4] 0.0782 | [23] 0.172 | [24] 0.0117

CCN(CC)CC#CCOC(=O)C(O)(c1ccccc1)C1CCCCC1 (centres undefined)
inactive: [9] 0.058 | [10] 0.000396 | [1] 0.11 | [2] 0.0848 | [11] 0.0689 | [12] 0.0837 | [13] 0.148 | [14] 0.0972 | [3] 0.0598 | [4] 0.127 | [15] 0.105 | [16] 0.105 | [17] 0.036 | [18] 0.0662 | [19] 0.137 | [20] 0.104

CN1C2CCCC1CC(NC(=O)c1nn(C)c3ccccc13)C2 (centres undefined)
inactive: [9] 0.0702 | [10] 0.114 | [11] 0.0358 | [12] 0.102 | [13] 0.0683 | [14] 0.0425 | [15] 0.0868 | [16] 0.0504 | [17] 0.0863 | [18] 0.0448 | [19] 0.093 | [20] 0.0119

CC(=O)Oc1cc(OC(C)=O)c2c(c1)OC(c1ccc(OC(C)=O)c(OC(C)=O)c1)C(OC(C)=O)C2 (centres undefined)
inactive: [5] 0.1 | [6] 0.0336 | [7] 0.18 | [8] 0.104

C[N+]1(C)C2CC(OC(=O)C(O)(c3cccs3)c3cccs3)CC1C1OC12 (centres undefined)
inactive: [9] 0.0262 | [10] 0.0758 | [11] 0.0294 | [12] 0.0213 | [13] -0.023 | [14] 0.0295 | [15] 0.0205 | [16] 0.0567 | [17] 0.0784 | [18] 0.0507 | [19] 0.1 | [20] 0.116
